Paper PMC12136788
This is one part of the list.

T1: UNK ZnF1-3 (human, UniProt Q9C0B0 31-174)
T1 sequence: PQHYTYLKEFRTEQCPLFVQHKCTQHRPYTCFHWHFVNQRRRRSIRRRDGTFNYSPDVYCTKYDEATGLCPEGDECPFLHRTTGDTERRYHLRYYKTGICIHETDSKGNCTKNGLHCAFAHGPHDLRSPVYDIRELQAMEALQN

B1: chrX:103214973:103214974:+_ENSMUSG00000031231_ENSMUST00000033582|mus_mus|FALSE|FALSE (ssRNA)
RNA: GGGAGUUCUACAGUCCGACGAUCAGAAACACAGAAGAUGGCUCCACCUGCUAAUAUAGCAUUCCCAUAUUUGUCAUGGAAACUAGGUGCCCUCUUCUGGUGGCUCUGCCUUGCCACCACUUGCUGAAUGCUUCGAACUUGGAGCAACAGAGGAUUGAGCAUCA
B2: 58471268_58471476_997_ncRNA_ENSMUSG00000026034_ENSMUST00000148330|mouse|control|control (ssRNA)
RNA: GGGAGUUCUACAGUCCGACGAUCUGUUCAUCAUCAUAUGUUGCACUUCCAAAGUCCACCACUUUAAUAUCUGGAUUUACUAUAGUACGUUCAUCACGUUUCAUUUUGGGAUUAUAAGCCUCUGUGUAGUCAGACUUCACAAAUCAACAGAGGAUUGAGCAUCA
B3: chr1:75533408:75533409:+_ENSMUSG00000026213_ENSMUST00000113553|mus_mus|FALSE|FALSE (ssRNA)
RNA: GGGAGUUCUACAGUCCGACGAUCACUUUGGGAAGAGGGGAAGUUCACAACUUUUUCACAAUUGGUGGCUCACGCCAUUAAUCUCAACACUUAGAAGGCAGAGGUAGGCAGGUCUCCAUGAGUUCAAGGCCAGCCUGGUCUACACAACAGAGGAUUGAGCAUCA
B4: 76075535_76079160_4048_CDS_ENSG00000078687_ENST00000588847|human|control|control (ssRNA)
RNA: GGGAGUUCUACAGUCCGACGAUCUUUUGCUGCAAACUGCAAAAGCUGUGCUUGAACCUGAGGGGAUAGAAACUGAGGCACUUGAGCACGGAGACUGGGCUGGGAAGAGUUAAGAGGCUGCACUGGUGGCUGUGGCGGCUGCUGCAACAGAGGAUUGAGCAUCA
B5: chr7:141445308:141445309:+_ENSG00000106028_ENST00000265304|hu_hu|hu_hu_hu_mus_False|58_88 (ssRNA)
RNA: GGGAGUUCUACAGUCCGACGAUCUAUGAUUGUUGUUGCUUGCCGCCUCACAUUAUUUUUAUCCAUGUACUCGCCAUAGUCUAUUUUCCCUUCCACAAAUAUACGAGCCCCCUUUUUCACAUACUGAUAUGCCACAUCUCUGAGCAACAGAGGAUUGAGCAUCA
B6: chr1:169080634:169080635:+_ENSG00000143153_ENST00000367816|hu_mus|FALSE|FALSE (ssRNA)
RNA: GGGAGUUCUACAGUCCGACGAUCGGUUAGCAGCAUUACUUGGAUGGUCCCGAUGAAGAUGCCAGCCAGGCAGCCAUAAAAUAUCACGUAGAACAGAAGGAUCUUAAACCAACUACCACCGGUCCUGCCCAAAAACUCCUUCUUCAACAGAGGAUUGAGCAUCA
B7: chr6:40197388:40197389:+_ENSMUSG00000057716_ENSMUST00000061740|mus_mus|mus_mus_mus_hu_False|18_108 (ssRNA)
RNA: GGGAGUUCUACAGUCCGACGAUCGAGUUGUCAGUUUGGAUUUAUUCCACCUCUGUUUGGGUGCUAGCCACUAAGACUGUUAUUUUGGGAUUCAUGGCCUUGAAUAUCAAGAGGGAAGGGACGAGAAUGGAAAGAGUCAAGAGUCAACAGAGGAUUGAGCAUCA
B8: 21654947_21657548_106_5pUTR_ENSMUSG00000028252_ENSMUST00000108240|mouse|control|control (ssRNA)
RNA: GGGAGUUCUACAGUCCGACGAUCGCAAAUAGUGGGAGCUCUGCCAGAAGUUCCCUGCCAUGGAAUAAUACUGCUUGCCCUGAUACAAAUGCACCAGCCAGCAAAGCGGCCCGCGGAGCGACCAUAGACACAGUCCGGACGACUCAACAGAGGAUUGAGCAUCA
B9: chr15:90999404:90999405:+_ENSG00000140575_ENST00000268182|hu_hu|motif|central (ssRNA)
RNA: GGGAGUUCUACAGUCCGACGAUCCUGCAGAGUCUUUUGGGCAUCACCUUCAUCCAGGGCUUCAUUAAUUAAACCAAUGGCGGAAAUCCUCUCAUGUUCCUCUUGCACCACCAGGUUCACAUGGUCCACGCAAGCUUGGAUAUCCAACAGAGGAUUGAGCAUCA
B10: chr10:121586544:121586545:+_ENSG00000198825_ENST00000369080|hu_hu|FALSE|FALSE (ssRNA)
RNA: GGGAGUUCUACAGUCCGACGAUCCCGACUGCCCAAUCGAGGCGCUGAGGCAAUAAUACCACAACUAGGAAGAACGUAAUCUAUUGGCCCUACACUCUCUAAUGAGUUAGCUAGCUGCCUGUCUUCAUCAGACUUAGAAUUUGUCAACAGAGGAUUGAGCAUCA
B11: chr10:33214929:33214930:-_ENSG00000150093_ENST00000302278|hu_hu|hu_hu_hu_mus_True|8_28 (ssRNA)
RNA: GGGAGUUCUACAGUCCGACGAUCAACAAGUUCAUUGAAAAACUCUCCUCUGUCAGUAAGACUAAGCACAUUUUUGUAGCUAAAUGGGCUGGUGCAGUUUUGUUCACUUGUGCAAGGAUUUCUUAGCUUAGCUGGUGUUGUGCUCAACAGAGGAUUGAGCAUCA
B12: chr2:216981417:216981418:+_ENSG00000079246_ENST00000392132|hu_hu|hu_hu_hu_mus_True|88_98 (ssRNA)
RNA: GGGAGUUCUACAGUCCGACGAUCCUGAUACUGGUCCCCACCAGAAAGGGGAUUGUCAGUGCCAUCUGUGCCAUAGAGGACUAACGCAAUCUCAUCUUUGCUCUCCGAAAAUACCUGUCGUUGGACAAACAUAGUCAUCACUUUCAACAGAGGAUUGAGCAUCA
B13: 71052489_71058091_572_3pUTR_ENSG00000133997_ENST00000430055|human|control|control (ssRNA)
RNA: GGGAGUUCUACAGUCCGACGAUCCCAGGCUUUAGCUGCACAAAUUUGGGUGGAAAUUUUUGUCUGAGGUCUAAAAGUAAAGCAUCCACACGUUGUCUCUGAAAAAUAGAGCUUGGUUCUUCUUUCCUUUUGGCUUUAGGUCUGCAACAGAGGAUUGAGCAUCA
B14: chr15:41988372:41988373:+_ENSG00000174197_ENST00000570161|hu_mus|FALSE|FALSE (ssRNA)
RNA: GGGAGUUCUACAGUCCGACGAUCUGUCUCUUCUUGUUUCACUGUUAUCCCUUCUGGGCAUUCACCAAGUUCAUAAUCAUAAUCAUCUAGAGGCUCUUCUUUAAUGACGACAUUAAAGUUUCCAUUCGGGUUUGAUGGUGAGGACAACAGAGGAUUGAGCAUCA

These binders were tested against T1, UNK ZnF1-3 (assay: nsRBNS (natural sequence RNA bind-n-seq); RBNS binding buffer (assumed for nsRBNS): 25 mM Tris pH 7.5, 150 mM KCl, 3 mM MgCl2, 0.01% Triton X-100, 500 ug/ml BSA, 20 U/ml SUPERase-In, 4 C; UNK is unkempt and MSI1 is Musashi-1; names of the RNAs are library labels; protein concentration not given here; high values mean tight binding).

Row | Binder | binding signal [enrichment R]
1 | B1 | 1.09
2 | B2 | 0.599
3 | B3 | 1.37
4 | B4 | 2.44
5 | B5 | 0.668
6 | B6 | 1.59
7 | B7 | 1.5
8 | B8 | 1.58
9 | B9 | 1.59
10 | B10 | 1.14
11 | B11 | 0.944
12 | B12 | 0.813
13 | B13 | 0.865
14 | B14 | 0.872
